Measured values taken from PubChem BioAssay AID1671194 (National Center for Advancing Translational Sciences (NCATS), 2021).
About 240 (0.17%) of roughly 140,000 compounds were called active. This list was built around the results that the source calls inconclusive (neither active nor inactive); the mix of calls is not that of the screen. Calls come from the whole dose curve; as a rule, active = well fitted inhibition curve with a large enough effect; inconclusive = small, poorly fitted or top-dose-only effect; inactive = no such curve, though single readings can be large or run the other way. A potency beside an inconclusive call is a rough fit, not a confirmed value.
Potency is the fitted concentration of half-maximal effect; tags give direction and shape of the fitted curve.

Experiment: Primary qHTS assay for inhibitors of alpha-synuclein gene (SNCA) expression; note: nearly all actives have a fitted effect of over 45% in size;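 for activity change, negative = inhibition: plate controls were DMSO cells for no effect and cell-free wells for full effect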
Conditions: HEK-293 SNCA-luciferase knock-in, luminescence, 24 h; activity change, negative = inhibition: at 57.2 µM (top of the series) unless noted
With `O=C(O)C1(Oc2ccc3ncccc3c2)CCN(Cc2ccncc2)CC1` the “activity change, negative = inhibition” value was inactive: 5.44%.
For `COc1cccc(-c2ccccc2NC(=O)C2CCN(Cc3ccccc3F)CC2)c1`, the “activity change, negative = inhibition” value was inactive: 3.65%.
For `CN(C)c1ccc(CN[C@H]2CC(C)(C)[C@@H]3C[C@@](C)(O)CC[C@]23CCC(=O)N2CCOCC2)cc1`, the “activity change, negative = inhibition” value was inactive: -18.4%.
With `COc1ccc(-c2nc3cnc(N4CCN(C)CC4)nc3n(Cc3ccc(F)cc3)c2=O)cc1` the Potency was inconclusive: 10 µM [inhibitor, partial curve, poor fit].
For `COc1ccc2[nH]c3c(c2c1)CCNC31CCN(C(=O)c2cnccc2C)CC1`, the Potency was inconclusive: 39.8 µM [inhibitor, single point].
For `COc1ccc(-c2nc(C3CC3)nc3c2CCN(CCC(C)C)CC3)cc1`, the Potency was inconclusive: 7.08 µM [inhibitor, full curve, poor fit].
With `O=C(NCCCc1ccccc1)c1nc2sccn2c1-c1cccnc1` the “activity change, negative = inhibition” value was inactive: -2.39%.
For `O=C(NCc1cccc(C(F)(F)F)c1)C1CCCN(Cc2cccc(-c3ccc(F)cc3F)c2)C1` (configuration not stated), the Potency was inconclusive: 17.8 µM [inhibitor, single point].
In the case of `COc1cc(SC)ccc1C(=O)N[C@H]1CCN2C(=O)N(c3ccc(OC(F)(F)F)cc3)C(=O)[C@@H]2C1`, the Potency is reported as inconclusive: 7.08 µM [inhibitor, single point].
With `Cc1c(Cl)cccc1NC(=O)CSc1nc(=O)[nH]c2c1CCCC2` the “activity change, negative = inhibition” value was inactive: -4.48%.
For `O=C(c1cccc2nccnc12)N1CCC2(CC1)Nc1ccccc1NC2=O`, the Potency was inconclusive: 3.55 µM [inhibitor, full curve, poor fit].
For `CCOC(=O)c1c(C)oc2nc(C)nc(NCC3CCN(Cc4ccccc4C)CC3)c12`, the Potency was inconclusive: 39.8 µM [inhibitor, single point].
For `Cc1cccc(-c2nc(CS(=O)CC(=O)NCc3ccc(Cl)cc3)c(C)o2)c1` (configuration not stated), the Potency was inconclusive: 20 µM [inhibitor, single point].
For `CN(CCc1ccccc1)[C@@H]1[C@H](O)[C@H](CO)O[C@@H]1CNS(=O)(=O)c1cccs1`, the Potency was inconclusive: 1.58 µM [inhibitor, partial curve, poor fit].
In the case of `CCN(CC)CCn1c(=N)n(CCOc2ccccc2Cl)c2ccccc21`, the Potency is reported as inconclusive: 31.6 µM [inhibitor, single point].
With `COc1ccc(C2=C(C)C(=O)N(Cc3ccc(C(=O)Nc4ccc(F)cc4C)cc3)S2(=O)=O)cc1` the Potency was inconclusive: 7.08 µM [inhibitor, single point].
For `CCOc1ccc(C(=O)NCc2ccc3c(c2)CCN3C(=O)c2ccccc2)cc1`, the Potency was inconclusive: 31.6 µM [inhibitor, single point].
In the case of `COc1cccc(CN2CCCn3nc(C)c(-c4ccccc4[S+](C)(=O)[O-])c32)c1`, the Potency is reported as inconclusive: 56.2 µM [inhibitor, single point].
For `COc1ccc(C2Cn3nnc(C(=O)N4CCN(C(=O)c5ccc(C)cc5C)CC4)c3CO2)cc1` (configuration not stated), the Potency was inconclusive: 39.8 µM [inhibitor, single point].
In the case of `O=C(CCc1cc2n(n1)CCCNC2)Nc1ccc2c(c1)OCCO2`, the Potency is reported as inconclusive: 0.708 µM [inhibitor, full curve, poor fit].
For `CCN1c2cc(C(=O)Nc3ccc(Cl)c(C)c3)ccc2C(=O)N2CCCCC21` (configuration not stated), the “activity change, negative = inhibition” value was inactive: -28.7%.
In the case of `CC(C)CCN1CCc2ncc(C(=O)NCc3ccccc3)n2CC1`, the Potency is reported as inconclusive: 44.7 µM [inhibitor, single point].
In the case of `Cc1ccc(NC(=O)CN2C(=O)NC(c3ccc(Cl)cc3)C3=C2COC3=O)c(C)c1` (configuration not stated), the “activity change, negative = inhibition” value is reported as inactive: -9.48%.
With `O=C(NCCc1ccc(Cl)cc1)c1ccc2nnc(-c3cccc(C(F)(F)F)c3)n2c1` the Potency was inconclusive: 2 µM [inhibitor, full curve, poor fit].
For `O=C1COCC2(CN(CCC(F)(F)F)C2)CN1Cc1cccc(OC(F)(F)F)c1`, the Potency was inconclusive: 12.6 µM [inhibitor, single point].
For `CCC(C(=O)NC1CCCCC1)n1c(SCc2ccc(F)cc2)nc2ccncc21` (configuration not stated), the Potency was inconclusive: 44.7 µM [inhibitor, partial curve, poor fit].
For `COc1ccc(NC(=O)c2sc3nc4c(cc3c2N)CN(Cc2ccccc2)CC4)cc1`, the Potency was inconclusive: 39.8 µM [inhibitor, single point].
In the case of `O=C(c1ccccc1)N1CCC(N2CCCNC2=O)CC1`, the Potency is reported as “inactive”.
For `COCCn1c2c(c(=O)n1-c1ccccc1)CCN(C(=O)c1nc3ccccc3[nH]1)C2`, the Potency was inconclusive: 8.91 µM [inhibitor, single point].
In the case of `COc1ccc(Nc2ccnc(N3CCC(NC(=O)c4ccc(C(F)(F)F)cc4)CC3)n2)cc1`, the Potency is reported as inconclusive: 39.8 µM [inhibitor, single point].
For `O=C(NCCc1ccc(Cl)cc1)c1ccc(CSCc2ccccc2Cl)o1`, the Potency was inconclusive: 39.8 µM [inhibitor, single point].
In the case of `COc1ccc(C2(CNC(=O)C(=O)Nc3cccc(C(F)(F)F)c3)CCCC2)cc1OC`, the “activity change, negative = inhibition” value is reported as inactive: -20.8%.
In the case of `CCN(CC)c1ccc(C(=O)NCc2nnc3ccc(-c4ccc(C)cc4)nn23)cc1`, the “activity change, negative = inhibition” value is reported as inactive: -1.83%.
In the case of `C[C@@H](N)C(=O)N1CCC(n2nccc2NC(=O)Nc2cccc(F)c2)CC1`, the “activity change, negative = inhibition” value is reported as inactive: 7.85%.
For `CCOc1ccc(C(=O)NC2CC(c3cc(N4CCOCC4)ncn3)C2)o1` (configuration not stated), the Potency was inconclusive: 10 µM [inhibitor, full curve, poor fit].
With `Cc1oc(-c2cccc(Cl)c2)nc1CN1CCC(C(=O)NCCCN2CCN(c3cccc(Cl)c3)CC2)CC1` the Potency was inconclusive: 7.08 µM [inhibitor, single point].
For `Cc1ccc(C(=O)N[C@H]2CO[C@H]3[C@@H]2OC[C@@H]3n2cc(CC3CCCCC3)nn2)cc1`, the “activity change, negative = inhibition” value was inactive: -9.46% [at 87.6 µM].
In the case of `O=C(c1ccc(F)cc1)N1C[C@@H]2C[C@H](C1)c1c(NS(=O)(=O)c3cccc(F)c3)ccc(=O)n1C2`, the Potency is reported as inconclusive: 39.8 µM [inhibitor, single point].
For `CN(C)Cc1nnc(C2CC(NC(=O)c3ccc4scnc4c3)C2)n1C` (configuration not stated), the Potency was inconclusive: 1.41 µM [inhibitor, full curve, poor fit].
For `O=C(NC1CN(c2ccnc3ccnn23)C1)c1cc(F)ccc1Br`, the “activity change, negative = inhibition” value was inactive: -20.9%.
For `O=C1CCN(C(=O)C2CCN(C(=O)CCc3ccccc3)CC2)CCCCCCN1`, the “activity change, negative = inhibition” value was inactive: 28.5%.
With `Cc1oc(-c2ccc(C(=O)NCc3ccc(N(C)C)cc3)cc2)nc1COc1ccccc1` the “activity change, negative = inhibition” value was inactive: 14.7%.
In the case of `CCCNC(=O)C1CCc2sc(C(=O)N(C)C)cc2C1` (configuration not stated), the “activity change, negative = inhibition” value is reported as inactive: 12.1%.
In the case of `CC(=O)N1CCCC1c1nc(C2CN(Cc3ccc(F)c(Cl)c3)C2)no1` (configuration not stated), the Potency is reported as inconclusive: 20 µM [inhibitor, single point].
With `O=C(NCc1nnc2cc(-c3nc(C4CC4)no3)ccn12)c1ccc2[nH]ccc2c1` the Potency was inconclusive: 10 µM [inhibitor, partial curve, poor fit].
With `Cc1ccc(C(=O)N2CCC(Cc3ccc(CN4CCCCC4)cc3)CC2)cn1` the “activity change, negative = inhibition” value was inactive: 0.065%.
With `COc1ccc(N2CCN(C(=O)c3cc4c(=O)n(Cc5ccccc5)ccc4nc3C)CC2)cc1` the Potency was inconclusive: 17.8 µM [inhibitor, single point].
For `CCN(CC)CCNC(=O)CCc1cc2cc(OC)ccc2[nH]c1=O`, the “activity change, negative = inhibition” value was inactive: 1.98%.
With `COc1ccc(CNC(=O)N2CCC(Cc3ncc(C)n3C3CC3)C2)cc1` (configuration not stated) the “activity change, negative = inhibition” value was inactive: -15.3%.
For `CCc1ccc2nc(N3CCC(C(=O)O)CC3)sc2c1`, the “activity change, negative = inhibition” value was inactive: -88.8%.
For `COC(=O)c1ccc2nc(C[C@@H]3C[C@@H](C(C)C)[C@H](CNC(=O)COCC(=O)O)C=C3C)[nH]c2c1`, the “activity change, negative = inhibition” value was inactive: 0.643%.
For `CN(C)[C@@H]1CN(C2CCOCC2)CC[C@@H]1CO`, the “activity change, negative = inhibition” value was inactive: 9.86%.
In the case of `Cc1cc(Cl)ccc1NC(=O)N1CCC(Oc2ncccc2C(=O)N2CCOCC2)C1` (configuration not stated), the “activity change, negative = inhibition” value is reported as inactive: 7.94%.
With `CC1Oc2ccc(NS(=O)(=O)c3cccc(Cl)c3)cc2CN(Cc2ccccc2F)C1=O` (configuration not stated) the Potency was inconclusive: 7.08 µM [inhibitor, single point].
With `COc1ccccc1C(=O)N1CCC(C(NC(=O)c2ccccc2)C(=O)N2CCCCC2)CC1` (configuration not stated) the Potency was inconclusive: 2.51 µM [inhibitor, full curve].
For `COC(=O)c1ccc(NC(=O)N2CC(Oc3cccc(-c4nc(C)no4)c3)C2)cc1`, the “activity change, negative = inhibition” value was inactive: 1.46%.
With `Cc1ccccc1Cn1c(CN2CCN(c3cc(Cl)ccc3C)CC2)nc2c1c(=O)[nH]c(=O)n2C` the Potency was inconclusive: 31.6 µM [inhibitor, single point].
In the case of `O=C(NCCc1ccc(Cl)cc1)c1ccc2nnc(-c3cccnc3)n2c1`, the “activity change, negative = inhibition” value is reported as inactive: -2.14%.
In the case of `O=C1[C@@H]2C[C@@H](CN2CC2CC2)Oc2ccccc2N1Cc1ccc(OC(F)(F)F)cc1`, the “activity change, negative = inhibition” value is reported as inactive: -8.46% [at 87.6 µM].
With `COc1ccccc1C(=O)N1CC(CNc2cccnc2)C2(C1)CN(c1ccccc1)C2` (configuration not stated) the “activity change, negative = inhibition” value was inactive: -17.6% [at 87.6 µM].
For `O=C(C1CCC1)N1CC2CC(C1)[C@H]1CCCC(=O)N1C2` (some centres not stated), the Potency was inconclusive: 15.8 µM [inhibitor, partial curve, poor fit].
With `C[C@@]12CO[C@@H](Cc3ccccc3)O[C@@H]1CC[C@]1(C)C2CC[C@@H](O)[C@H]1CC(=O)NCc1ccco1` (some centres not stated) the Potency was inconclusive: 11.2 µM [inhibitor, partial curve, poor fit].
For `Cn1cc(C(=O)N2CCC3(CC2)c2nc[nH]c2CCN3S(C)(=O)=O)cn1`, the Potency was inconclusive: 39.8 µM [inhibitor, single point].
For `Cc1cc(NC(=O)N2CCC(CN3CCOCC3)CC2)ccc1Br`, the “activity change, negative = inhibition” value was inactive: 38.7%.
For `CC(=O)N1CCN(C(=O)c2cc(CC(C)C)[nH]c(=O)n2)CC(O)C1` (configuration not stated), the Potency was inconclusive: 0.794 µM [inhibitor, full curve, poor fit].
With `N#Cc1cccc(NC(=O)N[C@H]2[C@H](O)[C@@H](N3CCC(Cc4ccccc4)CC3)[C@@H]3OC[C@H]2O3)c1` the “activity change, negative = inhibition” value was inactive: -9.78%.
For `COc1ccccc1C(=O)N1CC(CNc2ccccc2)C2(C1)CN(c1ccccc1)C2` (configuration not stated), the Potency was inconclusive: 35.5 µM [inhibitor, single point].
